# Test results from the supplement of paper PMC4604168 (melanoma cell lines).
# This is one part of the list. Single values are uncertain, as repeats are few or missing.
# Tested on: A2058
# Test: cell count relative to DMSO control; melanoma cells; higher = more viable cells
# Conditions: library dose: low library concentration; 72 h
# 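Also: cell number obtained by counting DAPI-stained nuclei in high-throughput microscope images with image analysis software, screen run in 1,536-well plates.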
row,SMILES,cell count
1,"COc1ccc(C2=N[C@@H](c3ccc(Cl)cc3)[C@@H](c3ccc(Cl)cc3)N2C(=O)N2CCNC(=O)C2)c(OC(C)C)c1 [Nutlin-3] + CC(C)C[C@H](NC(=O)[C@H](Cc1ccccc1)NC(=O)c1cnccn1)B(O)O [Bortezomib] (first compound 0.1 µM, partner dose 0.001 µM)",108%
2,"CC(C)C[C@H](NC(=O)[C@H](Cc1ccccc1)NC(=O)c1cnccn1)B(O)O [Bortezomib] + CNC(=O)c1cc(Oc2ccc(NC(=O)Nc3ccc(Cl)c(C(F)(F)F)c3)cc2)ccn1 [sorafenib] (first compound 0.001 µM, partner dose 0.4 µM)",82.2%
3,"Cc1cc(Nc2cc(N3CCN(C)CC3)nc(/C=C/c3ccccc3)n2)n[nH]1 + Nc1ccn([C@@H]2O[C@H](CO)[C@@H](O)C2(F)F)c(=O)n1 [gemcitabine] (first compound 0.04 µM, partner dose 0.0004 µM)",102%
4,"CC(C)C[C@H](NC(=O)[C@H](Cc1ccccc1)NC(=O)c1cnccn1)B(O)O [Bortezomib] + Cc1nc(Nc2ncc(C(=O)Nc3c(C)cccc3Cl)s2)cc(N2CCN(CCO)CC2)n1 [dasatanib] (first compound 0.001 µM, partner dose 0.004 µM)",64.6%
5,"COc1ccc(C2=N[C@@H](c3ccc(Cl)cc3)[C@@H](c3ccc(Cl)cc3)N2C(=O)N2CCNC(=O)C2)c(OC(C)C)c1 [Nutlin-3] + C[C@@H](Oc1cc(-c2cnn(C3CCNCC3)c2)cnc1N)c1c(Cl)ccc(F)c1Cl [Crizotinib] (first compound 0.1 µM, partner dose 0.2 µM)",93.4%
6,"COc1ccc(C2=N[C@@H](c3ccc(Cl)cc3)[C@@H](c3ccc(Cl)cc3)N2C(=O)N2CCNC(=O)C2)c(OC(C)C)c1 [Nutlin-3] + OCc1c[nH]c2ccccc12 [Indole-3-carbinol] (first compound 0.1 µM, partner dose 0.8 µM)",102%
7,"COc1ccc(C2=N[C@@H](c3ccc(Cl)cc3)[C@@H](c3ccc(Cl)cc3)N2C(=O)N2CCNC(=O)C2)c(OC(C)C)c1 [Nutlin-3] + CS(=O)(=O)CCNCc1ccc(-c2ccc3ncnc(Nc4ccc(OCc5cccc(F)c5)c(Cl)c4)c3c2)o1 [lapatinib] (first compound 0.1 µM, partner dose 0.8 µM)",91.4%
8,"Cc1cn(-c2cc(NC(=O)c3ccc(C)c(Nc4nccc(-c5cccnc5)n4)c3)cc(C(F)(F)F)c2)cn1 [nilotinib] + CC(=O)c1c(C)c2cnc(Nc3ccc(N4CCNCC4)cn3)nc2n(C2CCCC2)c1=O [palbociclib] (first compound 0.2 µM, partner dose 0.04 µM)",83.8%
9,"Cc1cn(-c2cc(NC(=O)c3ccc(C)c(Nc4nccc(-c5cccnc5)n4)c3)cc(C(F)(F)F)c2)cn1 [nilotinib] + CCN(CC)CCNC(=O)c1c(C)[nH]c(/C=C2\C(=O)Nc3ccc(F)cc32)c1C [sunitinib] (first compound 0.2 µM, partner dose 0.4 µM)",104%
10,"Cc1cc(Nc2cc(N3CCN(C)CC3)nc(/C=C/c3ccccc3)n2)n[nH]1 + COc1ccc(Cl)c(Nc2nc3ccccc3nc2NS(=O)(=O)c2cccc(NC(=O)C(C)(C)N)c2)c1 [XL147] (first compound 0.04 µM, partner dose 0.8 µM)",100%
11,"COc1ccc(C2=N[C@@H](c3ccc(Cl)cc3)[C@@H](c3ccc(Cl)cc3)N2C(=O)N2CCNC(=O)C2)c(OC(C)C)c1 [Nutlin-3] + NC1(c2ccc(-c3nc4ccn5c(=O)[nH]nc5c4cc3-c3ccccc3)cc2)CCC1 [MK2206] (first compound 0.1 µM, partner dose 0.4 µM)",95%
12,"CC(C)C[C@H](NC(=O)[C@H](Cc1ccccc1)NC(=O)c1cnccn1)B(O)O [Bortezomib] + CS(=O)(=O)CCNCc1ccc(-c2ccc3ncnc(Nc4ccc(OCc5cccc(F)c5)c(Cl)c4)c3c2)o1 [lapatinib] (first compound 0.001 µM, partner dose 0.8 µM)",86.4%
13,"CC(C)C[C@H](NC(=O)[C@H](Cc1ccccc1)NC(=O)c1cnccn1)B(O)O [Bortezomib] + C[C@]1(c2nc3c(C(N)=O)cccc3[nH]2)CCCN1 [Veliparib] (first compound 0.001 µM, partner dose 1.4 µM)",78.3%
14,"Cc1cc(Nc2cc(N3CCN(C)CC3)nc(/C=C/c3ccccc3)n2)n[nH]1 + COCC[n+]1c2c(n(Cc3cnccn3)c1C)C(=O)c1ccccc1C2=O [YM155] (first compound 0.04 µM, partner dose 0.0004 µM)",85.8%
15,"Cc1cn(-c2cc(NC(=O)c3ccc(C)c(Nc4nccc(-c5cccnc5)n4)c3)cc(C(F)(F)F)c2)cn1 [nilotinib] + CC(C)C[C@H](NC(=O)[C@H](Cc1ccccc1)NC(=O)c1cnccn1)B(O)O [Bortezomib] (first compound 0.2 µM, partner dose 0.001 µM)",87%
16,"Cn1c(=O)n(-c2ccc(C(C)(C)C#N)cc2)c2c3cc(-c4cnc5ccccc5c4)ccc3ncc21 + CN1CCN(c2ccc3nc(-c4c(N)c5c(F)cccc5[nH]c4=O)[nH]c3c2)CC1 [Dovitinib] (first compound 0.004 µM, partner dose 0.1 µM)",99.5%
17,"CC(C)C[C@H](NC(=O)[C@H](Cc1ccccc1)NC(=O)c1cnccn1)B(O)O [Bortezomib] + CCCS(=O)(=O)Nc1ccc(F)c(C(=O)c2c[nH]c3ncc(Cl)cc23)c1F [PLX4720] (first compound 0.001 µM, partner dose 0.08 µM)",94.5%
18,"Cc1cn(-c2cc(NC(=O)c3ccc(C)c(Nc4nccc(-c5cccnc5)n4)c3)cc(C(F)(F)F)c2)cn1 [nilotinib] + OCc1c[nH]c2ccccc12 [Indole-3-carbinol] (first compound 0.2 µM, partner dose 0.8 µM)",86.8%
19,"CC(C)C[C@H](NC(=O)[C@H](Cc1ccccc1)NC(=O)c1cnccn1)B(O)O [Bortezomib] + Cn1c(Nc2ccc(C(F)(F)F)cc2)nc2cc(Oc3ccnc(-c4ncc(C(F)(F)F)[nH]4)c3)ccc21 [CHIR265] (first compound 0.001 µM, partner dose 0.08 µM)",66.6%
20,"Cc1cc(Nc2cc(N3CCN(C)CC3)nc(/C=C/c3ccccc3)n2)n[nH]1 + Cn1nnc2c(C(N)=O)ncn2c1=O [temozolomide] (first compound 0.04 µM, partner dose 2 µM)",83.2%
21,"Cc1cn(-c2cc(NC(=O)c3ccc(C)c(Nc4nccc(-c5cccnc5)n4)c3)cc(C(F)(F)F)c2)cn1 [nilotinib] + Cn1nnc2c(C(N)=O)ncn2c1=O [temozolomide] (first compound 0.2 µM, partner dose 2 µM)",84.2%
